# Test results as given in the BET-seq Pho4 binding data (Le et al. 2018).
# The other results are listed elsewhere or left out. Values were computed here from the reads of four pooled replicates and scatter widely.
# Biological target: T1, Pho4 (S. cerevisiae) (UniProt P07270)
# T1 sequence: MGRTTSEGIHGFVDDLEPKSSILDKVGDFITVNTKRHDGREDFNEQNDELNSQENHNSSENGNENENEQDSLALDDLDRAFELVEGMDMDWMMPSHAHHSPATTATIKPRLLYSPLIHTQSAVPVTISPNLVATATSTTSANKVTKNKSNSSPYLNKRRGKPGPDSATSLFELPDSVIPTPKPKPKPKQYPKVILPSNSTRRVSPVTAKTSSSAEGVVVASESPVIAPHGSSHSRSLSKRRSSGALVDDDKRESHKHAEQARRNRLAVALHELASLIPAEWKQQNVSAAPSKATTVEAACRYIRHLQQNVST
# Experiment: relative binding free energy (BET-seq); higher = weaker binding
# Details: reference: library average
row,Sequence,relative binding free energy [kcal/mol]
1,AATGGCACGTGGTCTG,-0.2
2,GCGTCCACGTGTGTTG,0.11
3,TGTGTCACGTGGCAGT,-0.03
4,AAGAACACGTGGGGGG,-0.14
5,ATGATCACGTGGATAT,0.15
6,GAGGACACGTGTGGGA,0.22
7,TCCGACACGTGTGGGT,0.17
8,GGGGCCACGTGCGTGA,-0.14
9,GTGTCCACGTGGGCTA,-0.02
10,GGATTCACGTGAATAG,0.41
11,GTTGCCACGTGGAGTT,-0.05
12,ATTGTCACGTGGTTTG,0.05
13,TTATGCACGTGGTTCT,-0.13
14,ACGGTCACGTGGTGTA,-0.15
15,ATACGCACGTGAGGTG,0.19
16,CAGGGCACGTGGCTTT,-0.08
17,CGTTACACGTGTTTTA,0.23
18,AGTAACACGTGGTTGT,0
19,TTCTACACGTGAATGG,0.39
20,GTGGGCACGTGTAAAT,0.05
21,CTCGTCACGTGTTGTT,0.06
22,AGGTTCACGTGGGTCT,0.15
23,AGAGTCACGTGCGGTG,0.08
24,TTCGGCACGTGATTTT,0.01
25,AACGTCACGTGGGTAT,0.07
26,CTTATCACGTGGTTAT,0.1

row,Sequence,relative binding free energy [kcal/mol]
1,GTAACCACGTGTTGTG,-0.07
2,AGCTGCACGTGTGTTT,-0.03
3,TTTGGCACGTGCGATA,-0.03
4,GAGAACACGTGGAGGT,0.28
5,CGGGACACGTGTGGGG,0.12
6,TTTATCACGTGATATC,0.39
7,TGGCGCACGTGTATAT,-0.13
8,ACATGCACGTGGTAGG,-0.11
9,TATCTCACGTGTTGAT,0.23
10,GGTCTCACGTGCGGGT,0.21
11,GTGGACACGTGGAGCT,-0.07
12,GTGTTCACGTGAGGCG,0.49
13,GTGGTCACGTGTCTTA,0.02
14,TGAAGCACGTGGTAGA,0
15,AGTCTCACGTGTATAT,0.2
16,GTGGGCACGTGATCGG,0.07
17,ATATTCACGTGTAAGA,0.28
18,GGTGCCACGTGGTCAT,-0.08
19,ATAAACACGTGGAGGG,-0.01
20,ATAGGCACGTGGTTCA,-0.28
21,GTCGGCACGTGATGCG,-0.11
22,AGAGACACGTGGTGGC,-0.04
23,TTTTACACGTGGATGT,0.11
24,AATTTCACGTGGGTCA,0.23
25,GTACTCACGTGTCGGT,0.24
26,ATAATCACGTGGAGTT,0.16

row,Sequence,relative binding free energy [kcal/mol]
1,GTGATCACGTGGAGTT,0.09
2,TGTAACACGTGACTGT,0.21
3,ATCGTCACGTGTTAAA,0.22
4,CGGGGCACGTGAGGGT,0.12
5,TTATTCACGTGCGGAT,0.29
6,GTTACCACGTGTTGTA,-0.08
7,GTGTACACGTGAAGGC,0.3
8,CGTGTCACGTGGGAGG,0
9,GATAGCACGTGGGATT,-0.15
10,GTATGCACGTGGTGCC,-0.04
11,CTAATCACGTGGGAGG,0.1
12,GAAAGCACGTGTGTAT,0.04
13,TATATCACGTGAATTG,0.2
14,ATTGTCACGTGGTAAG,0.1
15,TTTTACACGTGAAGTC,0.35
16,GAATGCACGTGTAAGG,0.14
17,GTGTTCACGTGTCGTC,0.29
18,CAGGGCACGTGCTGGG,-0.12
19,GAGGGCACGTGAAGTT,0.22
20,GAAAACACGTGTTGTG,-0.07
21,TGGTACACGTGGAATG,0.2
22,GTTCACACGTGTTGGG,0.2
23,AGTTGCACGTGAAGTT,0.27
24,TATTACACGTGTAGGA,0.14
25,GTGGCCACGTGTTGGC,-0.02
26,CAGTTCACGTGTAGTG,0.2

row,Sequence,relative binding free energy [kcal/mol]
1,TGGATCACGTGGGCGG,0.05
2,GATGGCACGTGTATGA,0.01
3,GTGGGCACGTGGAAAG,0.23
4,ATTTACACGTGTACGA,0.3
5,TTATACACGTGTTAGG,0.07
6,ATTATCACGTGGTCGT,-0.01
7,TAAGCCACGTGTGGGC,0.12
8,GTTGACACGTGCTGTT,0.03
9,TGTTGCACGTGGCATA,0.01
10,ATTTACACGTGATTAG,0.12
11,ATTCGCACGTGTGATG,0.11
12,TTTTACACGTGGCGGA,0.04
13,CGTTGCACGTGAGAGA,0.41
14,AGGTACACGTGAGATG,0.21
15,TTGTGCACGTGCCAGA,0.09
16,GTTTGCACGTGGAAAG,0.14
17,ATTTGCACGTGTTACG,0.1
18,AGGACCACGTGTTATG,0.05
19,TTTTGCACGTGGGAAC,-0.16
20,GTATGCACGTGGGGAG,-0.07
21,GGGCTCACGTGTGCGT,0.13
22,GTGTTCACGTGACATG,0.21
23,ACCTGCACGTGGTTTG,-0.06
24,CGTTGCACGTGTGCTT,0.03
25,AGGGGCACGTGGGATA,-0.22
26,CTAGTCACGTGGGAGG,-0.08

row,Sequence,relative binding free energy [kcal/mol]
1,TTGTTCACGTGTAATT,0.42
2,CTTCTCACGTGATGGT,0.25
3,GCGAACACGTGGGTTG,-0.05
4,CGTATCACGTGTTGAG,0.08
5,GATTTCACGTGGTGAC,0.4
6,CGGCTCACGTGGGGGA,0.05
7,ATTATCACGTGATAAG,0.31
8,CGTGCCACGTGATGGA,0.28
9,AGGGGCACGTGGATTT,-0.03
10,GGGCTCACGTGGGATA,0.43
11,TGCGTCACGTGAGGAG,0.28
12,ATTAGCACGTGTTTAG,-0.02
13,GTATACACGTGTTATG,0.1
14,TGTGGCACGTGGCCGG,-0.19
15,TTCTCCACGTGTGTGG,0.04
16,GTAGGCACGTGATAGG,-0.08
17,GAAGGCACGTGGTTGC,-0.06
18,AGAATCACGTGGTAGA,0.25
19,GTGCGCACGTGGCTTG,-0.16
20,TTAGTCACGTGGGAAT,-0.04
21,TAATACACGTGTTTGA,-0.01
22,TTCGGCACGTGGGAAT,-0.17
23,GTGTGCACGTGAGCGC,0.18
24,TTGAGCACGTGAGTTC,0.09
25,GGATGCACGTGGGCTG,-0.23
26,TATAGCACGTGTCGGG,-0.1

row,Sequence,relative binding free energy [kcal/mol]
1,GGCGGCACGTGGCTTG,-0.16
2,TGGCGCACGTGCCGGT,-0.15
3,TAGAACACGTGGTGGA,0.03
4,ATGGTCACGTGGAGAA,0.17
5,TCTTTCACGTGTAGTG,0.21
6,TGTACCACGTGTAAGT,-0.01
7,AGTGGCACGTGGAGTC,0.02
8,GGTTTCACGTGTAGTG,0.24
9,TGAAGCACGTGGATGA,-0.13
10,TTGAGCACGTGGAATT,0.04
11,TCAGACACGTGGGTTT,-0.04
12,TATGGCACGTGTTCTA,-0.18
13,GTGGTCACGTGTCTTT,0.1
14,GGGGTCACGTGGCGGC,0.01
15,GCGTGCACGTGTCGTG,-0.1
16,TTGGGCACGTGTATTG,-0.02
17,ATGTCCACGTGGTGGA,0.07
18,TACGTCACGTGGTATG,-0.07
19,TACTTCACGTGCAGGG,0.27
20,GTTTTCACGTGCGGAA,0.32
21,TCTAGCACGTGTTTTT,0
22,ACGGGCACGTGGGGCT,-0.19
23,GGCGGCACGTGCGAGG,-0.23
24,TTCGTCACGTGGTACG,0.05
25,ATTTTCACGTGAAGAG,0.4
26,TTTGTCACGTGTTACT,0.12

row,Sequence,relative binding free energy [kcal/mol]
1,TAGAGCACGTGCTGAT,0.01
2,ACGGGCACGTGGGTCG,-0.31
3,ATGTTCACGTGCGTTG,0.18
4,CTCATCACGTGGTGGA,0.2
5,AAGTGCACGTGATGCG,0.03
6,TCTGCCACGTGGTGGA,-0.01
7,TTGTGCACGTGGTCGT,-0.05
8,AGGTTCACGTGGAATG,0.33
9,CGGTTCACGTGTAGCG,0.23
10,GTGAGCACGTGCGGGT,-0.01
11,ATTTGCACGTGAGATG,0.2
12,CTTTTCACGTGGGTTC,0.28
13,AAGCGCACGTGAAGGT,0.21
14,TTAGCCACGTGGCGTT,-0.2
15,CTTGGCACGTGGAATG,0
16,ATAGACACGTGAGAGG,0.26
17,TTTAGCACGTGTTATT,-0.05
18,GGCGACACGTGCAGGT,0.16
19,GGTGGCACGTGTCAGG,-0.01
20,TGGAGCACGTGTGTTT,-0.06
21,CTTGTCACGTGAATTT,0.33
22,TGGTACACGTGCGGGA,0.08
23,TAGGGCACGTGTTACT,-0.07
24,TGGAGCACGTGTTGCG,-0.19
25,GTGAACACGTGGCGGG,-0.1
26,TGAGGCACGTGACGGC,0

row,Sequence,relative binding free energy [kcal/mol]
1,ACGAGCACGTGGGTTT,-0.14
2,ATTAACACGTGAATGG,0.26
3,TGAGGCACGTGATCTT,-0.1
4,TAGTACACGTGTATGT,0.07
5,TTGGGCACGTGGAGAA,-0.13
6,TTGGTCACGTGTTCGG,0.19
7,GAGCGCACGTGAAAGG,0.32
8,GATGGCACGTGAGGAT,0.33
9,GCAAGCACGTGAGTGG,0.29
10,GTATTCACGTGGGTCG,0.22
11,GATGGCACGTGGAAGG,0.07
12,ATGGTCACGTGAGTTA,0.45
13,TAATACACGTGGGGCT,-0.09
14,AGTTACACGTGAGTAG,0.3
15,AACGGCACGTGTGTAT,-0.02
16,TAGGCCACGTGTGTAA,-0.05
17,CGTTCCACGTGATGGT,0.1
18,AAGTTCACGTGTGGCA,0.33
19,TAAGGCACGTGTGGTA,-0.04
20,ATTAGCACGTGGTAAT,-0.18
21,GGGGTCACGTGTCGAT,0.21
22,AACTGCACGTGGCGTG,-0.09
23,AAGAGCACGTGGAGGA,-0.18
24,GTGGACACGTGTAAGT,0.17
25,TAATTCACGTGAGAGG,0.47
26,CGATGCACGTGTGGGG,0.03

row,Sequence,relative binding free energy [kcal/mol]
1,CCGTGCACGTGGATGG,0.03
2,AAATTCACGTGATTTT,0.19
3,ATTTACACGTGGGCGT,-0.04
4,TGGTGCACGTGGAGAC,0.12
5,TCAAGCACGTGAGTGG,0.14
6,CTTTGCACGTGCTGGG,-0.1
7,GTTAGCACGTGTTACG,-0.14
8,AGGGACACGTGAGGGC,0
9,TTAGGCACGTGAGTCG,0.06
10,CGTTACACGTGAGTAG,0.2
11,TGGGGCACGTGAATAG,0.21
12,TAGCGCACGTGAGTGG,0.05
13,TTATGCACGTGCCTTT,-0.08
14,TTGTTCACGTGCCGGT,0.35
15,CGTAGCACGTGTAATG,0.1
16,GGGTACACGTGGTGTA,-0.04
17,AAGTACACGTGTTTGC,0.13
18,TGAGACACGTGAGTCG,0.25
19,ATTAGCACGTGGATTT,-0.04
20,TATTGCACGTGAGTGG,0.15
21,AGCGTCACGTGGATTA,0.13
22,TGTTTCACGTGGCAAG,0.16
